Patent US20100162418A1 (Kyowa Kirin, published 2010)

What was measured:
[1] = molecular target: T1, human plasma-derived complement C4 binding protein (C4BP; manufactured by BioMed) (human, UniProt P04003 49-597; P20851 18-252); experiment: SPR (Biacore), C4BP immobilised on CM5, RAGE-Fc as analyte
T1 construct: mature; Bought plasma protein; also called Human C4BP
T1 sequence (looked up) 1: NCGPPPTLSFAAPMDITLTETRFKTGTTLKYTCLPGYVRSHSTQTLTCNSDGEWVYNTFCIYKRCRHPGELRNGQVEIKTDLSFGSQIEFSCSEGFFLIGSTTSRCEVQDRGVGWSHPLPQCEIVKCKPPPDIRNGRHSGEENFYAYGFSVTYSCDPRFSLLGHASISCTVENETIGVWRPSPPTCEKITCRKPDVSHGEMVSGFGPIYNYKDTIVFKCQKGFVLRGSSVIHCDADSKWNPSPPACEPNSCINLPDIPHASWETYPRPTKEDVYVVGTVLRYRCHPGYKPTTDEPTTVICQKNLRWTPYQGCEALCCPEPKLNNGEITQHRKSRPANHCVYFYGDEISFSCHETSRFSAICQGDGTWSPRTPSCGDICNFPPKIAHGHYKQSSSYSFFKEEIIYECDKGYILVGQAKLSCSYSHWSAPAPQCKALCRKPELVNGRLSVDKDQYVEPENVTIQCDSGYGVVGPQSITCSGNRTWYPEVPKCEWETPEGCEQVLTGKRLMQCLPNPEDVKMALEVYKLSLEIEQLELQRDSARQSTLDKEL
T1 sequence (looked up) 2: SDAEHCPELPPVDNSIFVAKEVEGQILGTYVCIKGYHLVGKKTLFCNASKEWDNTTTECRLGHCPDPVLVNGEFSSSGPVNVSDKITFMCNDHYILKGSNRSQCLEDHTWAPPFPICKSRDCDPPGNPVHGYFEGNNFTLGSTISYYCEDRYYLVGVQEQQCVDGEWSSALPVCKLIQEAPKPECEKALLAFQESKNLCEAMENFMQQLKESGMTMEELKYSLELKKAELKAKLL
Excerpt: (§1) Using an amine coupling kit (manufactured by Biacore), human plasma-derived Protein S (manufactured by Calbiochem), human plasma-derived complement C4 binding protein (C4BP; manufactured by BioMed), and human plasma-derived complement C1 inhibitor Berinert P (manufactured by CSL Behring) were respectively immobilized on flow cells of a CM5 sensor chip (manufactured by Biacore). An immobilized amount of the ligand protein on the respective flow cells was set to the range of 2400 to 3600 resonance units (hereinafter referred to as “RU”). The complement C4 binding protein and the complement C1 inhibitor are known as plasma glycoproteins having the anti-inflammatory effect. Then, a recombinant human RAGE-Fc fusion protein (manufactured by R&D Systems) diluted to given concentrations (50000, 25000, 12500, 6250, 3125, and 1562 ng/mL) using HBS-EP+buffer (manufactured by Biacore), as an analyte, was allowed to run and bind to the ligand-immobilized flow cells at a temperature of 25° C., a flow rate of 5 μL/min, association time of 140 seconds, and dissociation time of 240 seconds. The chip was regenerated by a flow of an aqueous glycine solution (pH 1.5) (manufactured by Biacore) for 60 seconds.

[2] = molecular target: T2, human plasma-derived complement C1 inhibitor Berinert P (manufactured by CSL Behring) (human, UniProt P05155 23-500); experiment: SPR (Biacore), C1 inhibitor immobilised on CM5, RAGE-Fc as analyte
T2 construct: mature; Bought plasma protein
T2 sequence (looked up): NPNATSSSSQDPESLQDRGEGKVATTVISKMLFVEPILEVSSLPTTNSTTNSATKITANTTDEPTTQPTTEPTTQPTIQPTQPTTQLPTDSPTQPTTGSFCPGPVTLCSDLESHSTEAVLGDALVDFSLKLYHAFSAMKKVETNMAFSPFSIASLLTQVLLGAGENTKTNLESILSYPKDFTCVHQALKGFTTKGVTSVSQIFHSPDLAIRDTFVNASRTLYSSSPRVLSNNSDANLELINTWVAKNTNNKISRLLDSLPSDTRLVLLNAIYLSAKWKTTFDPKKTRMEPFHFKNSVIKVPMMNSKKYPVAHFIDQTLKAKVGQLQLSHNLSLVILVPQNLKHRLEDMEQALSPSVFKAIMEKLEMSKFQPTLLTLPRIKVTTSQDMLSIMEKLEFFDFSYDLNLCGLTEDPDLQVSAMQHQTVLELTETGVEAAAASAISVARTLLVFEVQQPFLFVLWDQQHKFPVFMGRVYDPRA
Excerpt: as §1

[3] = molecular target: T3, recombinant human activated protein C preparation Xigris (manufactured by Eli Lilly) (human, UniProt P04070 43-197; P04070 212-461); experiment: SPR (Biacore), activated protein C immobilised on CM5, RAGE-Fc as analyte
T3 construct: Bought preparation; also called APC
Excerpt: (§2) Next, using an amine coupling kit (manufactured by Biacore), human plasma-derived Protein S (manufactured by Calbiochem), recombinant human activated protein C preparation Xigris (manufactured by Eli Lilly), and human plasma-derived sex hormone-binding globulin (SHBG) (manufactured by Scipac) were respectively immobilized on flow cells of a CM5 sensor chip (manufactured by Biacore). An immobilized amount of the ligand protein on the respective flow cells was set to the range of 2000 to 3000 RU. Activated protein C and sex hormone-binding globulin are known as plasma glycoproteins having relatively high homology to Protein S, among the human proteins. Then, a recombinant human RAGE-Fc fusion protein (manufactured by R&D Systems) diluted to given concentrations (50000, 25000, 12500, 6250, 3125, and 1562 ng/mL) using HBS-EP+buffer (manufactured by Biacore), as an analyte, was allowed to run and bind to the ligand-immobilized flow cells at a temperature of 25° C., a flow rate of 5 μL/min, association time of 140 seconds, and dissociation time of 240 seconds. The chip was regenerated by a flow of an aqueous glycine solution (pH 1.5) (manufactured by Biacore) for 60 seconds.

[4] = molecular target: T4, MSPS, purified recombinant human Protein S obtained from FUT8 knockout CHO/DG44 cells (human, UniProt P07225 42-676, gamma-carboxylated glutamic acid (Gla) in the Gla domain; complex type N-glycoside-linked sugar chains without fucose (fucose not detected)); experiment: SPR (Biacore T100), kinetic analysis, MSPS immobilised on CM5, RAGE-Fc as analyte
T4 construct: It differs from KCPS only in glycosylation (no core fucose); also called fucose-free recombinant Protein S
T4 sequence: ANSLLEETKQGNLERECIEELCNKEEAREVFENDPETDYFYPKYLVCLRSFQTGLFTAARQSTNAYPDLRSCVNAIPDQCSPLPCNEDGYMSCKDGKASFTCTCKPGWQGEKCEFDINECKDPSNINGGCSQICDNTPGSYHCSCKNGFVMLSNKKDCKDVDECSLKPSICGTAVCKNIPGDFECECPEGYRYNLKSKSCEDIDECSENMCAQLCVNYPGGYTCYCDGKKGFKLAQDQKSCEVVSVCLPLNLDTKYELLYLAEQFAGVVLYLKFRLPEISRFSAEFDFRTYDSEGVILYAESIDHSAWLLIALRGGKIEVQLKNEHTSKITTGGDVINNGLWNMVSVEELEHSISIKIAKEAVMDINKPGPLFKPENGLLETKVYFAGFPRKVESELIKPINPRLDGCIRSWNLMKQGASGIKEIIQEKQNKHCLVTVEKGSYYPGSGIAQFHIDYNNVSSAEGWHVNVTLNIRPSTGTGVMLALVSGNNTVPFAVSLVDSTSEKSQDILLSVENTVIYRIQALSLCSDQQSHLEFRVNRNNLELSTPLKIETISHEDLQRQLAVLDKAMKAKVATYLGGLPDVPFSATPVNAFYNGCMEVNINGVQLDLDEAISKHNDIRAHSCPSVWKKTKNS
Excerpt: (§3) Using an amine coupling kit (manufactured by Biacore), human plasma-derived Protein S (manufactured by Calbiochem), and recombinant human Protein S prepared in Example 4, MSPS and KCPS were respectively immobilized on flow cells of a CM5 sensor chip (manufactured by Biacore). An immobilized amount of the ligand protein on the respective flow cells was set to the range of 1500 to 2000 RU. Then, an anti-human Protein S antibody C-17 (manufactured by Santa Cruz) (FIG. 7), or a human plasma-derived complement C4 binding protein (manufactured by BioMed) diluted to given concentrations (50000, 25000, 12500, 6250, 3125, and 1562 ng/mL) using HBS-EP+buffer (manufactured by Biacore), as an analyte, was allowed to run and bind to the ligand-immobilized flow cells at a temperature of 25° C., a flow rate of 5 μL/min, association time of 140 seconds, and dissociation time of 240 seconds. The anti-human Protein S antibody C-17 and the human plasma-derived complement C4 binding protein are known to bind to the sex hormone-binding globulin-like domain (SHBG domain) at the carboxyl terminal of Protein S. The chip was regenerated by a flow of an aqueous glycine solution (pH 1.5) (manufactured by Biacore) for 60 seconds. Dissociation constants calculated by analysis of the obtained data using Biacore T100 evaluation software ver 1.1 (manufactured by Biacore) are given in Table 2 below.
(§4) Then, a recombinant human RAGE-Fc fusion protein (manufactured by R&D Systems) diluted to given concentrations (50000, 25000, 12500, 6250, 3125, and 1562 ng/mL) using HBS-EP+buffer (manufactured by Biacore), as an analyte, was allowed to run and bind to the ligand-immobilized flow cells at a temperature of 25° C., a flow rate of 5 μL/min, association time of 140 seconds, and dissociation time of 240 seconds (FIG. 8). The chip was regenerated by a flow of an aqueous glycine solution (pH 1.5) (manufactured by Biacore) for 60 seconds.

[5] = molecular target: recombinant human Mac-1 heterodimer (alpha m beta 2 integrin, CD11b/CD18; manufactured by R&D Systems) (human, UniProt P11215; P05107); experiment: SPR (Biacore), Mac-1 immobilised on C1 chip, RAGE-Fc (50000, 5000, 500 ng/mL) as analyte
Excerpt: Using an amine coupling kit (manufactured by Biacore), human plasma-derived Protein S (manufactured by Calbiochem), human plasma-derived complement C4 binding protein (C4BP; manufactured by BioMed), and human plasma-derived complement C1 inhibitor Berinert P (manufactured by CSL Behring) were respectively immobilized on flow cells of a CM5 sensor chip (manufactured by Biacore). An immobilized amount of the ligand protein on the respective flow cells was set to the range of 2400 to 3600 resonance units (hereinafter referred to as “RU”). The complement C4 binding protein and the complement C1 inhibitor are known as plasma glycoproteins having the anti-inflammatory effect. Then, a recombinant human RAGE-Fc fusion protein (manufactured by R&D Systems) diluted to given concentrations (50000, 25000, 12500, 6250, 3125, and 1562 ng/mL) using HBS-EP+buffer (manufactured by Biacore), as an analyte, was allowed to run and bind to the ligand-immobilized flow cells at a temperature of 25° C., a flow rate of 5 μL/min, association time of 140 seconds, and dissociation time of 240 seconds. The chip was regenerated by a flow of an aqueous glycine solution (pH 1.5) (manufactured by Biacore) for 60 seconds. […]

[6] = molecular target: T5, human plasma-derived Protein S (manufactured by Calbiochem) (human, UniProt P07225 42-676, gamma-carboxylated glutamic acid (Gla) in the N-terminal Gla domain; complex type N-glycoside-linked sugar chains (Asn458, Asn468, Asn489), partly with core alpha1,6-fucose (Fuc 0.26 per Man 3.00)); experiment: SPR (Biacore T100), kinetic analysis, Protein S immobilised on CM5, RAGE-Fc as analyte
T5 construct: Bought protein purified from human plasma; also called native Protein S; Human plasma Protein S
T5 sequence: T4 sequence
Excerpt: as §3, §4

[7] = molecular target: T6, human plasma-derived sex hormone-binding globulin (SHBG) (manufactured by Scipac) (human, UniProt P04278 30-402); experiment: SPR (Biacore T100), human plasma-derived SHBG immobilised on CM5 chip, RAGE-Fc as analyte
T6 construct: mature; Bought plasma protein
T6 sequence (looked up): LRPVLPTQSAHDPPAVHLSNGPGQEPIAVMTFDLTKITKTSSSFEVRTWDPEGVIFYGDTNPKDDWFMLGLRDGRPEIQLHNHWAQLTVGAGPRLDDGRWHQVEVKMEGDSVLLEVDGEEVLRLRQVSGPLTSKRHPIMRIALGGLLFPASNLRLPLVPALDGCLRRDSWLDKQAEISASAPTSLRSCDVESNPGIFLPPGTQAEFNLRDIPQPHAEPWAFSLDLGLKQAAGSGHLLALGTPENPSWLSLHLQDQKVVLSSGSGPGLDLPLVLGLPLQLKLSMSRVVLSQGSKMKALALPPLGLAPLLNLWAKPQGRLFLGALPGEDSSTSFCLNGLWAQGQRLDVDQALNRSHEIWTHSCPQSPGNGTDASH
Experimental: The abscissa represents time (seconds), and the ordinate represents a binding activity of RAGE to SHBG on a sensor chip of Biacore T100. From the top, the sensorgram represents a value obtained at the time when RAGE was allowed to run at concentrations of 50000, 25000, 12500, 6250, 3125 and 0 ng/mL.
as §2, with “The chip was regenerated by a flow of an aqueous glycine solution (pH 1.5) (manufactured by Biacore) for 60 seconds.” left out

T3 sequence (P04070 43-197, chain 1 of 2): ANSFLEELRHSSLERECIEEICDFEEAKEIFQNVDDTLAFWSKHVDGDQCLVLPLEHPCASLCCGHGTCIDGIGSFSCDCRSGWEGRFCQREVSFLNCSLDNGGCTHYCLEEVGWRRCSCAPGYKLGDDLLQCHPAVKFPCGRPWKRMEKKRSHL
T3 sequence (P04070 212-461, chain 2 of 2): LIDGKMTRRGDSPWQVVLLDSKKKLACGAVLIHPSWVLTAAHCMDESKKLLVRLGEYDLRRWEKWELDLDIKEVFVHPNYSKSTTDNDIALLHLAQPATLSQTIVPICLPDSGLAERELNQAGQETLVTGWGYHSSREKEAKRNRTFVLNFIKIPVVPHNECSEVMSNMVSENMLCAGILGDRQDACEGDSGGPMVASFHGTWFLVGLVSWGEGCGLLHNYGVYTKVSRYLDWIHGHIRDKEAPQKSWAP

- Kd [4]: 7.5 nM
- koff [4]: 0.04 s⁻¹
- kon [4]: 5.1e+06 M⁻¹ s⁻¹
- binding result [5]: binds
- Kd [6]: 49 nM
- koff [6]: 0.008 s⁻¹
- kon [6]: 160000 M⁻¹ s⁻¹
- binding result [7]: no binding (tested: 50000 ng/mL)
B1: recombinant human RAGE-Fc fusion protein (manufactured by R&D Systems) (Fc fusion)
chain: not shown
notes: Bought fusion protein; also called recombinant soluble RAGE-human IgG1 Fc chimeric protein; not shown: Fc of human IgG1
- binding result [1]: no binding (tested: up to 50000 ng/mL RAGE-Fc)
- binding result [2]: no binding (tested: up to 50000 ng/mL RAGE-Fc)
- binding result [3]: no binding (tested: up to 50000 ng/mL RAGE-Fc)
